# Measurements from the supplement of paper PMC11741623.
# The list shows a part of the results. Interaction screen of human proteins with wild-type SARS-CoV-2 proteins by split-DHFR complementation in yeast, 1 µg/mL methotrexate. Value = fitness of the pair (three or more lineages) minus that of the viral protein without a human partner, on a scale set by negative (0) and fused positive (1) controls, mean of up to three cultures; higher = more likely to interact. Active = false discovery rate below 0.05 (one-sided t-test) in at least one culture. Nearly all pairs are not hits, and differences among them are mostly noise (correlation between cultures about 0.3); most hits were seen in one culture only. Human sequences are the Swiss-Prot entries looked up by gene name; the clone may be another isoform. NSP2 values were corrected by the authors for a growth advantage. Listed are human proteins with a hit and a random twelfth of the others.
# B1: ZNRF1, Q8ND25 (protein)
# chain: MGGKQSTAARSRGPFPGVSTDDSAVPPPGGAPHFGHYRTGGGAMGLRSRSVSSVAGMGMDPSTAGGVPFGLYTPASRGTGDSERAPGGGGSASDSTYAHGNGYQETGGGHHRDGMLYLGSRASLADALPLHIAPRWFSSHSGFKCPICSKSVASDEMEMHFIMCLSKPRLSYNDDVLTKDAGECVICLEELLQGDTIARLPCLCIYHKSCIDSWFEVNRSCPEHPAD
# B2: TMEM204, Q9BSN7 (protein)
# chain: MTVQRLVAAAVLVALVSLILNNVAAFTSNWVCQTLEDGRRRSVGLWRSCWLVDRTRGGPSPGARAGQVDAHDCEALGWGSEAAGFQESRGTVKLQFDMMRACNLVATAALTAGQLTFLLGLVGLPLLSPDAPCWEEAMAAAFQLASFVLVIGLVTFYRIGPYTNLSWSCYLNIGACLLATLAAAMLIWNILHKREDCMAPRVIVISRSLTARFRRGLDNDYVESPC
# B3: CHCHD6, Q9BRQ6 (protein)
# chain: MGSTESSEGRRVSFGVDEEERVRVLQGVRLSENVVNRMKEPSSPPPAPTSSTFGLQDGNLRAPHKESTLPRSGSSGGQQPSGMKEGVKRYEQEHAAIQDKLFQVAKREREAATKHSKASLPTGEGSISHEEQKSVRLARELESREAELRRRDTFYKEQLERIERKNAEMYKLSSEQFHEAASKMESTIKPRRVEPVCSGLQAQILHCYRDRPHEVLLCSDLVKAYQRCVSAAHKG
# B4: DEFB1, P60022 (protein)
# chain: MRTSYLLLFTLCLLLSEMASGGNFLTGLGHRSDHYNCVSSGGQCLYSACPIFTKIQGTCYRGKAKCCK
# Target: SARS-CoV-2 E
# Test: yeast fitness gain over the viral ORF with no human partner (scaled fitness); higher = more likely to interact
# Procedure: (§1)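 Split mouse DHFR complementation in pooled diploid yeast: human ORFeome clones carry one fragment and viral ORFs the other; barcoded lineages compete in 1 µg/mL methotrexate and fitness is read by barcode sequencing in up to three cultures.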
row,Binder,yeast fitness gain
1,B1,inactive: 0.0269
2,B2,inactive: 0.00889
3,B3,inactive: -0.0115
4,B4,inactive: -0.0117

# Target: SARS-CoV-2 M
# Test: as above
# Procedure: as §1
row,Binder,yeast fitness gain
1,B1,inactive: 0.024
2,B2,inactive: 0.00835
3,B3,inactive: 0.0783
4,B4,inactive: 0.0137

# Target: SARS-CoV-2 N
# Test: as above
# Procedure: as §1
row,Binder,yeast fitness gain
1,B1,inactive: -0.0697
2,B2,inactive: 0.0765
3,B3,inactive: -0.0285
4,B4,inactive: 0.0234

# Target: SARS-CoV-2 NSP1
# Test: as above
# Procedure: as §1
row,Binder,yeast fitness gain
1,B1,inactive: -0.115
2,B2,inactive: 0.00149
3,B3,inactive: 0.0111
4,B4,inactive: -0.00714

# Target: SARS-CoV-2 NSP10
# Test: as above
# Procedure: as §1
row,Binder,yeast fitness gain
1,B1,inactive: 0.0347
2,B2,inactive: 0.0309
3,B3,inactive: 0.0317
4,B4,inactive: 0.0435

# Target: SARS-CoV-2 NSP12
# Test: as above
# Procedure: as §1
row,Binder,yeast fitness gain
1,B1,inactive: 0.0415
2,B2,inactive: 0.0499
3,B3,inactive: -0.00604
4,B4,inactive: 0.0453

# Target: SARS-CoV-2 NSP13
# Test: as above
# Procedure: as §1
row,Binder,yeast fitness gain
1,B1,inactive: 0.0104
2,B2,inactive: 0.0532
3,B3,inactive: 0.0317
4,B4,inactive: 0.0302

# Target: SARS-CoV-2 NSP14
# Test: as above
# Procedure: as §1
row,Binder,yeast fitness gain
1,B1,inactive: -0.28
2,B2,inactive: -0.00429
3,B3,inactive: -0.116
4,B4,inactive: 0.148

# Target: SARS-CoV-2 NSP15
# Test: as above
# Procedure: as §1
row,Binder,yeast fitness gain
1,B1,inactive: -0.0718
2,B2,inactive: 0.0924
3,B3,inactive: -0.0703
4,B4,inactive: 0.0906

# Target: SARS-CoV-2 NSP16
# Test: as above
# Procedure: as §1
row,Binder,yeast fitness gain
1,B1,inactive: 0.0855
2,B2,inactive: 0.118
3,B3,inactive: 0.0331
4,B4,inactive: -0.0277

# Target: SARS-CoV-2 NSP2
# Test: as above
# Procedure: as §1
row,Binder,yeast fitness gain
1,B1,inactive: -0.0754
2,B2,inactive: -0.0395
3,B3,inactive: -0.14
4,B4,inactive: -0.0904

# Target: SARS-CoV-2 NSP4
# Test: as above
# Procedure: as §1
row,Binder,yeast fitness gain
1,B1,inactive: -0.305
2,B2,inactive: 0.047
3,B3,inactive: -0.0179
4,B4,inactive: 0.0922

# Target: SARS-CoV-2 NSP5
# Test: as above
# Procedure: as §1
row,Binder,yeast fitness gain
1,B1,inactive: 0.0594
2,B2,inactive: 0.0747
3,B3,inactive: 0.0874
4,B4,inactive: 0.0446

# Target: SARS-CoV-2 NSP6
# Test: as above
# Procedure: as §1
row,Binder,yeast fitness gain
1,B1,inactive: 0.0107
2,B2,inactive: 0.0246
3,B3,inactive: 0.0503
4,B4,inactive: -0.0402

# Target: SARS-CoV-2 NSP7
# Test: as above
# Procedure: as §1
row,Binder,yeast fitness gain
1,B1,inactive: 0.0127
2,B2,inactive: 0.0424
3,B3,inactive: -0.063
4,B4,inactive: 0.000926

# Target: SARS-CoV-2 NSP8
# Test: as above
# Procedure: as §1
row,Binder,yeast fitness gain
1,B1,inactive: 0.0584
2,B2,inactive: 0.00391
3,B3,inactive: -0.0645
4,B4,inactive: 0.0261

# Target: SARS-CoV-2 NSP9
# Test: as above
# Procedure: as §1
row,Binder,yeast fitness gain
1,B1,inactive: -0.013
2,B2,inactive: 0.00236
3,B3,inactive: -0.0482
4,B4,inactive: 0.0721

# Target: SARS-CoV-2 ORF10
# Test: as above
# Procedure: as §1
row,Binder,yeast fitness gain
1,B1,inactive: -0.0743
2,B2,inactive: 0.024
3,B3,inactive: 0.0256
4,B4,inactive: 0.0023

# Target: SARS-CoV-2 ORF3A
# Test: as above
# Procedure: as §1
row,Binder,yeast fitness gain
1,B1,inactive: 0.0412
2,B2,inactive: 0.0782
3,B3,inactive: 0.0656
4,B4,inactive: 0.058

# Target: SARS-CoV-2 ORF3B
# Test: as above
# Procedure: as §1
row,Binder,yeast fitness gain
1,B1,inactive: 0.00132
2,B2,inactive: 0.00976
3,B3,inactive: -0.0221
4,B4,inactive: 0.0533

# Target: SARS-CoV-2 ORF6
# Test: as above
# Procedure: as §1
row,Binder,yeast fitness gain
1,B1,inactive: 0.00255
2,B2,inactive: 0.0196
3,B3,inactive: 0.0804
4,B4,inactive: 0.0431

# Target: SARS-CoV-2 ORF7A
# Test: as above
# Procedure: as §1
row,Binder,yeast fitness gain
1,B1,inactive: 0.0312
2,B2,inactive: 0.035
3,B3,inactive: -0.0555
4,B4,inactive: 0.00227

# Target: SARS-CoV-2 ORF7B
# Test: as above
# Procedure: as §1
row,Binder,yeast fitness gain
1,B1,inactive: -0.00688
2,B2,inactive: 0.0256
3,B3,inactive: -0.00396
4,B4,inactive: 0.0173

# Target: SARS-CoV-2 ORF8
# Test: as above
# Procedure: as §1
row,Binder,yeast fitness gain
1,B1,inactive: -0.0377
2,B2,inactive: 0.0765
3,B3,inactive: 0.0212
4,B4,inactive: 0.0111

# Target: SARS-CoV-2 ORF9B
# Test: as above
# Procedure: as §1
row,Binder,yeast fitness gain
1,B1,inactive: 0.0166
2,B2,inactive: 0.0413
3,B3,inactive: 0.0105
4,B4,inactive: 0.00947

# Target: SARS-CoV-2 ORF9Bwu (the 73-codon ORF)
# Test: as above
# Procedure: as §1
row,Binder,yeast fitness gain
1,B1,inactive: -0.0318
2,B2,inactive: 0.083
3,B3,inactive: 0.0534
4,B4,inactive: 0.0407

# Target: SARS-CoV-2 S
# Test: as above
# Procedure: as §1
row,Binder,yeast fitness gain
1,B1,inactive: 0.0381
2,B2,inactive: 0.0795
3,B3,inactive: -0.0911
4,B4,inactive: 0.0739
